Data on 18 sequences can be found in publication PMC12820563, “FoxP3 forms a head-to-head dimer in vivo and stabilizes its multimerization on adjacent microsatellites”.

This is one part of the list.

This experiment deals with T1, MBP-FoxP1dN (Mus musculus, UniProt P58462 326-579).
T1 sequence: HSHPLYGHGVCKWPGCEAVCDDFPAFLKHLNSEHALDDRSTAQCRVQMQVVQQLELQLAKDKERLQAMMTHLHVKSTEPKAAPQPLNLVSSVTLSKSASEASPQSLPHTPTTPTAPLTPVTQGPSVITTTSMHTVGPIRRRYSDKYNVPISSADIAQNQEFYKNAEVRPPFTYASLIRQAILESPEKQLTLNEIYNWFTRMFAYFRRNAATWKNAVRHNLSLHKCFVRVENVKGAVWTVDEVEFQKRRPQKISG
Kind of experiment: PD-seq (MBP pull-down with sequencing); 20 mM Tris-HCl pH 7.5, 100 mM NaCl, 1.5 mM MgCl2, 0.4 uM protein, 0.1 uM dsDNA library, 30 min, room temperature, amylose pull-down; high values mean tight binding. As to conditions: protein: recombinant; tags: His6-MBP; chain copies: 2; dsDNA, one strand shown. The essentials: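 E. coli-expressed mouse FoxP3 or FoxP1 fragment, N-terminus removed and tagged with His6-MBP, was used at 0.4 µM against 0.1 µM of a Klenow-filled degenerate double-stranded DNA library. After 30 min at room temperature in Tris pH 7.5 buffer with NaCl and MgCl2, complexes were pulled down on amylose resin and washed three times. Binding is pull-down over input reads-per-million enrichment from pooled replicates of the proteinase K-released, PCR-barcoded, Illumina-sequenced DNA.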
Turning to “GATGATTGTTCTCCCAGCTGATGAATTAGCAACCTCGAGTAAACAAATTTTCCTAATCTTTCTGTTCAAGCGCCATCTAC”, the binding signal is 1.04 RPM ratio (pull-down/input).

On to “GATGATTGTTCTCCCAGCTGATGAATTCCTAGCGTCGAGTAAACAAATTTTCCTAATCTTTCTGTTCAAGCGCCATCTAC”, for which the binding signal was 0.861 RPM ratio (pull-down/input).

With “GATGATTGTTCTCCCAGCTGATGAATTAGACATATCGAGTAAACAAATTTTCCTAATCTTTCTGTTCAAGCGCCATCTAC”, the binding signal is 1.06 RPM ratio (pull-down/input).

As to “GATGATTGTTCTCCCAGCTGATGAATTTTAAGAATCGAGTAAACAAATTTTCCTAATCTTTCTGTTCAAGCGCCATCTAC”, the binding signal is 0.988 RPM ratio (pull-down/input).

On to “GATGATTGTTCTCCCAGCTGATGAATTTGGCCGTTCGAGTAAACAAATTTTCCTAATCTTTCTGTTCAAGCGCCATCTAC”, for which the binding signal was 0.867 RPM ratio (pull-down/input).

In the case of “GATGATTGTTCTCCCAGCTGATGAATTGGACTTGTCGAGTAAACAAATTTTCCTAATCTTTCTGTTCAAGCGCCATCTAC”, the binding signal was 0.846 RPM ratio (pull-down/input).

As for “GATGATTGTTCTCCCAGCTGATGAATTAATTGGTTCGAGTAAACAAATTTTCCTAATCTTTCTGTTCAAGCGCCATCTAC”, the binding signal was 0.987 RPM ratio (pull-down/input).

Turning to “GATGATTGTTCTCCCAGCTGATGAATTGCCCCTCTCGAGTAAACAAATTTTCCTAATCTTTCTGTTCAAGCGCCATCTAC”, the binding signal is 0.852 RPM ratio (pull-down/input).

Consider “GATGATTGTTCTCCCAGCTGATGAATTCTCGATCTCGAGTAAACAAATTTTCCTAATCTTTCTGTTCAAGCGCCATCTAC”, for which the binding signal is 0.774 RPM ratio (pull-down/input).

As to “GATGATTGTTCTCCCAGCTGATGAATTAGTCTTGTCGAGTAAACAAATTTTCCTAATCTTTCTGTTCAAGCGCCATCTAC”, the binding signal is 1.02 RPM ratio (pull-down/input).

With “GATGATTGTTCTCCCAGCTGATGAATTATGGGCATCGAGTAAACAAATTTTCCTAATCTTTCTGTTCAAGCGCCATCTAC”, the binding signal is 1.04 RPM ratio (pull-down/input).

For the sequence “GATGATTGTTCTCCCAGCTGATGAATTTTTCCATTCGAGTAAACAAATTTTCCTAATCTTTCTGTTCAAGCGCCATCTAC”, the binding signal was 0.965 RPM ratio (pull-down/input).

As for “GATGATTGTTCTCCCAGCTGATGAATTGCTGGTGTCGAGTAAACAAATTTTCCTAATCTTTCTGTTCAAGCGCCATCTAC”, the binding signal is 1 RPM ratio (pull-down/input).

As to “GATGATTGTTCTCCCAGCTGATGAATTTACTTCCTCGAGTAAACAAATTTTCCTAATCTTTCTGTTCAAGCGCCATCTAC”, the binding signal was 1.28 RPM ratio (pull-down/input).

Regarding “GATGATTGTTCTCCCAGCTGATGAATTAATCTCCTCGAGTAAACAAATTTTCCTAATCTTTCTGTTCAAGCGCCATCTAC”, the binding signal was 0.857 RPM ratio (pull-down/input).

Turning to “GATGATTGTTCTCCCAGCTGATGAATTGAACGCATCGAGTAAACAAATTTTCCTAATCTTTCTGTTCAAGCGCCATCTAC”, the binding signal was 1.14 RPM ratio (pull-down/input).

For “GATGATTGTTCTCCCAGCTGATGAATTGTCCATTTCGAGTAAACAAATTTTCCTAATCTTTCTGTTCAAGCGCCATCTAC”, the binding signal is 1.05 RPM ratio (pull-down/input).

Turning to “GATGATTGTTCTCCCAGCTGATGAATTCCGGCCGTCGAGTAAACAAATTTTCCTAATCTTTCTGTTCAAGCGCCATCTAC”, the binding signal is 0.798 RPM ratio (pull-down/input).
